Measured values as given in PubChem BioAssay (NCI).
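Compound exposure: 48 hours, 5 concentrations, 96-well plates. GI50 marks 50% less growth. At the TGI there is no net growth.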

These compounds were tested on NCI-H322M lung (assay: NCI anticancer screen, dose series, 48 h).

Row | SMILES | TGI | GI50
1 | CC12CC3(O)OC(O1)C1(COC(=O)c4ccccc4)C3CC21OC1OC(CO)C(O)C(O)C1O (stereo not given) | > 100 µM | –
2 | CC(=O)NNC(=S)/N=C/c1c(O)cc(C)oc1=O | > 100 µM | –
3 | Cc1ccc([N+](=O)[O-])cc1S(=O)(=O)Nc1ccc(C2=NNC(c3cccs3)C2)cc1 (stereo not given) | > 100 µM | –
4 | Nc1nc(N)c2nc(-c3ccco3)cnc2n1 | > 100 µM | –
5 | Cc1cccc2c1NC(=O)[C@@]21[C@H](C(=O)c2ccccc2)[C@]2(C(=O)Nc3ccccc32)[C@H]2CCCN21 | > 100 µM | 44.4 µM
6 | C[Si](C)(C)/C=C\CCCN1C(=O)CCC1=O | > 100 µM | –
7 | O=C1/C=C/[C@@H](O)[C@@H]2C[C@@H](O)C[C@H]2/C=C/CCC[C@H](CO)O1 | > 100 µM | 4.95 µM
8 | Cc1ccc(/C=N/NC2=NCCN2)s1 | > 100 µM | –
9 | NCC(=O)N1CCN(c2nc(N3CCCC3)c3nc(Cl)c(NCc4ccccc4)nc3n2)CC1 | 3.52 µM | –
10 | O=C1C(Cl)=C(Nc2cccc(O)c2)C(=O)N1c1cccc(Cl)c1 | > 100 µM | 36.6 µM
11 | CNC(=O)c1cncc(/C=C/c2c(C)cccc2C)c1 | > 25 µM | > 25 µM
12 | Cc1ccc(O)c(-c2csc(NCN3CCN(CNc4nc(-c5cc(C)ccc5O)cs4)CC3)n2)c1 | > 100 µM | –
13 | Cc1ccc(S(=O)(=O)/N=C(\[O-])C2=C(c3ccccc3)NN(C)c3nc4cccc[n+]4nc32)cc1 | > 100 µM | –
14 | Cc1ccc(Nc2sc(C)cc2C#N)c([N+](=O)[O-])c1 | > 100 µM | –
15 | Nc1nc(N)c2nnn(C[C@H]3CC[C@@H](CO)C3)c2n1 | > 100 µM | –
16 | COc1ccc(-c2nc(N)c3ncn(C4OC(CO)C(O)C4O)c3n2)cc1 (stereo not given) | > 100 µM | –
17 | O[C@H]1[C@H](O)[C@H](O)CN2CCC[C@@H](O)[C@H]12 | > 100 µM | –
18 | COc1cc(/C=C/C(=O)N[C@@H]2C(=O)N3[C@@H]2SC(C)(C)[C@@H]3C(=O)O)cc(OC)c1OC | > 100 µM | –
19 | CCOC(=O)C(C)(C)/C=C\C(Cl)=C(Cl)Cl | > 100 µM | –
20 | COc1ccc(-c2csc(NC(=O)N3CCN(c4cc5c(cc4F)c(=O)c(C(=O)O)cn5C4CC4)CC3)n2)cc1 | > 100 µM | 2.64 µM
21 | N/C(=N\c1nc2ccccc2s1)NC(=O)Nc1ccccc1Cl | > 67.1 µM | 0.567 µM
22 | CCN(CC)CCSc1nc2c(c(=N)n1-c1ccccc1)c(=S)n(-c1ccccc1)c(=S)n2-c1ccccc1 | 23 µM | –
23 | O=C1/C(=C/c2ccccc2)CN(CCC(=O)N2C/C(=C\c3ccccc3)C(=O)/C(=C/c3ccccc3)C2)C/C1=C\c1ccccc1 | > 100 µM | > 88.7 µM

Row | SMILES | TGI | GI50
24 | O=S(=O)(NCCCNc1cc(-c2cn(-c3ccccc3)nc2-c2cccc(O)c2)ccn1)c1cccc2ccccc12 | > 100 µM | 4.62 µM
25 | CCOC(=O)c1c(C)[nH]c(/C=C2\N=C(c3ccc[nH]3)C=C2OC)c1C | 4.53 µM | 0.164 µM
26 | O=C(CN1CCOCC1)CC(O)(C(F)(F)F)C(F)(F)F | > 100 µM | –
27 | COC(=O)[C@H](Cc1ccccc1)NP(=O)(O)OCC1OC(n2cc(C)c(=O)[nH]c2=O)CC1N=[N+]=[N-] (stereo not given in full) | > 100 µM | –
28 | CSc1nncc2[nH]cnc12 | > 100 µM | –
29 | CCCCNC(=O)Oc1ccc2c(=O)c3sc4c(=O)c5ccccc5c(=O)c4c3c(=O)c2c1 | 0.316 µM | 0.17 µM
30 | Oc1ccc2ccccc2c1N=Nc1ccccn1 | 29.5 µM | 1.76 µM
31 | CN(C1=NS(=O)(=O)N=C(N(C)c2ccccc2)O1)c1ccccc1 | 47.4 µM | –
32 | CCOC(=O)C#Cc1ccc([N+](=O)[O-])cc1 | 15.4 µM | –
33 | COc1ccc(N=C2C(=Nc3ccc(OC)cc3)N(S(=O)(=O)c3ccccc3)C(=S)N2c2ccc(OC)cc2)cc1 | > 100 µM | –
34 | CC1=C(/C=C/C2=CC(=C\C(=O)O)/CC(C3=C(C)CCCC3(C)C)C2)C(C)(C)CCC1 (stereo not given) | 25.3 µM | –
35 | COc1cc(C(=O)Nc2c3ccccc3nc3ccccc23)cc(OC)c1OC | > 100 µM | –
36 | CN(C)CCCN=c1cc2c(=O)n(CCCN(C)C)c(=O)c3c(NCCCN(C)C)cc4c(O)n(CCCN(C)C)c(=O)c1c4c3-2 | 5.44 µM | 1.09 µM
37 | O=c1c(-c2ccccc2Cl)coc2cc(F)ccc12 | > 100 µM | –
38 | NC12CC3CC4C1CC1CC2C(C3)C4(N)C1 | > 100 µM | –
39 | COc1ccc(Cl)cc1NC(=O)c1c(NC(=O)C(F)(F)C(F)(F)F)sc2c1CCCCC2 | 6.73 µM | 1.58 µM
40 | O=S(=O)(O)c1ccc2c(N=Nc3ccccc3Cl)c(O)ccc2c1 | > 100 µM | –
41 | COC(OC)(c1ccccc1)C(I)I | > 56.6 µM | –
42 | O=c1ccccc(-c2ccc(-c3ccco3)cc2)c1O | 59.9 µM | 0.605 µM
43 | COc1cc2c3c(n(Cc4ccccc4)c(=O)c2cc1OC)-c1ccccc1C3=O | > 100 µM | –
44 | COc1cc2cc(C(=O)N3CC(CCl)c4c3cc(N(C)C)c3ccccc43)[nH]c2c(OC)c1OC (stereo not given) | > 100 µM | –
45 | N#C[C@@]12CCCC(=O)[C@@H]1[C@H]1CCC[C@H]12 | 32.8 µM | –
46 | COc1ccccc1N=N/C(=N/NC(=O)c1ccc(C)cc1)c1ccc(N(CCC#N)CCC#N)cc1OC | > 100 µM | –

Row | SMILES | TGI | GI50
47 | O=C1OC[C@@H]2Cc3c([nH]c4ccccc34)[C@@H](c3cc(O)c(O)c(O)c3)N12 | > 100 µM | –
48 | Cc1ccc2cccc3c2c1CC1(C3=O)S(=O)(=O)OCCOS1(=O)=O | > 100 µM | –
49 | CC([C@H]1CCC2C3CCC4CC5(CC[C@]4(C)C3CC[C@@]21C)c1ccccc1C(=O)N5C)N(C)C (stereo not given in full) | > 100 µM | –
50 | CN(C)c1ccc2cc(-c3cc4c(oc3=O)-c3ccccc3OC4O)c(=O)oc2c1 (stereo not given) | > 25 µM | 11.4 µM
51 | CCN(CC)CCOC(=O)/C(=C/c1ccc(OC)cc1)c1cc(OC)c(OC)c(OC)c1 | > 100 µM | –
52 | Cc1ccc(NC(=O)CC/C(CC(=O)c2ccc(Cl)cc2)=N\NC(=O)C(=O)NN)cc1C | > 100 µM | –
53 | CCOC(=O)/C(C#N)=C\C=C1/C=CNC2=NCCN21 | > 100 µM | –
54 | CC1(C)C(=O)C2(OS(=O)(=O)C(F)(F)F)CCC1C2 (stereo not given) | > 100 µM | –
55 | C#Cc1cccc(Nc2ncnc3ccc(-c4cnc(Cl)c(NS(C)(=O)=O)c4)cc23)c1 | 1.95 µM | 0.367 µM
56 | O=C(Nc1ccc(Cl)cc1)c1cc2cc(F)ccc2cc1O | 9.9 µM | 2.05 µM
57 | CCOC(=O)C1(C(=O)OCC)CC(=O)[C@@]2(C1)OCC[C@H]1OC(=O)C[C@H]12 | > 100 µM | –
58 | O=C(NCCCCNCCCNC(=O)c1cc(-c2ccccc2)nc2ccccc12)c1cc(-c2ccccc2)nc2ccccc12 | 3.44 µM | –
59 | CCOC(=O)CNC1C(NC(C)=O)C(OC)OC2COC(c3ccccc3)OC21 (stereo not given) | > 100 µM | –
60 | COc1ccc(C(=O)C(Br)C(Br)C(=O)O)cc1 (stereo not given) | > 100 µM | –
61 | CC(=O)Nc1ccc2oc(=O)c3ccccc3c2c1 | > 100 µM | –
62 | CCC(O)(c1ccc(OC)cc1)C(c1ccc(OCc2ccccc2)cc1)c1ccc(OCc2ccccc2)cc1 (stereo not given) | > 100 µM | –
63 | C=C1SC(=Nc2ccccc2Cl)N(C(=O)c2sc3ccccc3c2Cl)C1(C)C | > 47.4 µM | 2.21 µM
64 | NNC(=O)CCC(=O)Nc1ccc(Cl)cc1Cl | > 100 µM | –
65 | CC(C)NC(=O)OCc1c(COC(=O)NC(C)C)c(-c2ccc[n+](COC(=O)C3CC3)c2)n2c1CCC2 | > 100 µM | –
66 | O=C1/C(=C/c2cccs2)NC(=S)N1CN1CCOCC1 | > 100 µM | –
67 | N=C1C(c2nc3ccccc3s2)=C(O)CN1c1ccc(Cl)cc1Cl | 70.8 µM | 17 µM
68 | CC1(C)C[C@H](O)[C@H](O)[C@]23C(=O)O[C@H](O)[C@H]2C(C=O)=CC[C@@H]13 | > 100 µM | –
69 | C[C@]12CC(C#N)C(=O)C(O)=C1CC[C@@H]1C2CC[C@@]2(C)C1CC[C@@H]2O (stereo not given in full) | > 100 µM | –

Row | SMILES | TGI | GI50
70 | COc1cc2c(cc1OC)C(Cc1ccccc1CCCl)=NCC2 | > 100 µM | –
71 | CC(=O)NC1C(OCc2ccccc2)OC(COC(=O)CCCCCNc2ccc([N+](=O)[O-])c3[nH]c4ccc(O)cc4c(=O)c23)C(O)C1OC(C)C(=O)N[C@@H](C)C(=O)N[C@H](CCC(=O)OCc1ccccc1)C(N)=O (stereo not given in full) | 11.7 µM | –
72 | C/C=C1\C(=O)O[C@@H]2C1C[C@@H]1O[C@H]2[C@H](C)CCC/C(C)=C/CC[C@@]1(C)O (stereo not given in full) | 30.7 µM | 16.1 µM
73 | S=C(c1c[nH]c2ccccc12)N1CCN(c2ccccc2)CC1 | > 100 µM | –
74 | COc1ccc(-n2c3c(c4c(CN(C)C)c(O)ccc42)C(=O)c2ccccc2C3=O)cc1 | 34.4 µM | –
75 | COc1c(B(O)O)cccc1-c1nc2c(F)cc3[nH]ncc3c2c2c1CCCC2 | 23.1 µM | 2.5 µM
76 | CCCCCCCC(=O)OCC1OC(n2cc(F)c(=O)[nH]c2=O)C(NC(=O)OCc2ccccc2)C(OC(=O)CCCCCCC)C1O (stereo not given) | > 100 µM | –
77 | CN(C)CCNC(=O)c1ccc(NCCCN(C)CCCNc2ccc(C(=O)NCCN(C)C)c3[nH]c4ccc([N+](=O)[O-])cc4c(=O)c23)c2c(=O)c3cc([N+](=O)[O-])ccc3[nH]c12 | 1.16 µM | –
78 | N=c1oc2ccc(Cl)cc2cc1C(=O)NCc1ccccc1 | > 100 µM | –
79 | O=C(c1cc2c(C(F)(F)F)onc2c2ccccc12)C(F)(F)F | > 100 µM | –
80 | O=C(/C=C/c1cccs1)c1cccc(C(=O)/C=C/c2cccs2)n1 | > 100 µM | –
81 | COc1cc2c(=O)n(CCCn3ccnc3)c3c4cc5c(cc4ccc3c2cc1OC)OCO5 | > 100 µM | 0.605 µM
82 | COc1cc2ccc(/C(C)=N/OC(C)=O)cc2cc1OC | > 100 µM | –
83 | CC(C(=O)c1ccccc1)C1(O)C(=O)Nc2ccccc21 (stereo not given) | > 100 µM | –
84 | CC(C)Cc1ccc(C(C)/C=C2\CCC(CN3CCCC3)C2=O)cc1 (stereo not given) | 48.2 µM | –
85 | CC1=C(C(=O)Nc2ccccc2)C(c2ccc(C)o2)C(C#N)=C(SCc2ccccc2)N1 (stereo not given) | > 100 µM | –
86 | CCn1c(-c2ccc(C)cc2)cs/c1=N\C(P(=O)(O)O)P(=O)(O)O | > 100 µM | –
87 | Cc1cc(O)c(/C=N/c2nc(-c3cccc([N+](=O)[O-])c3)cs2)c(=O)o1 | > 100 µM | –
88 | CC(C)c1cccc(C(C)C)c1N=C(N)C#N | > 100 µM | –
89 | O=C1CCC2=C3C4CCCCC4C(=O)C4CCCC(OC2C1)C34 (stereo not given) | > 32.6 µM | 3.59 µM
90 | Cc1cccc2c1O/C(=C\c1ncc([N+](=O)[O-])n1C)C2=O | 5.89 µM | 1.69 µM
91 | O=C(N/N=C\c1ccc([N+](=O)[O-])cc1)c1ccccc1Nc1ccccc1C(=O)N/N=C/c1ccc([N+](=O)[O-])cc1 | > 100 µM | –
